In PubChem BioAssay AID624417 (National Center for Advancing Translational Sciences (NCATS), 2012):
The campaign covered roughly 410,000 compounds. About 6,400 (1.6%) were called active. The shares of active, inactive and inconclusive entries below differ from those in the screen. The call rests on the fitted dose curve; in most records, active means well fitted inhibition curve with a large enough effect; inconclusive means small, poorly fitted or top-dose-only effect; inactive means no such curve, though single readings can be large or run the other way. No potency is given beside an inconclusive call; the fits are too rough.

What follows are compounds tested against Glucagon-like peptide 1 receptor (Homo sapiens) (UniProt P43220) (assay: qHTS of GLP-1 Receptor Inverse Agonists (Inhibition Mode)). Conditions: HEK293 GLP-1R CRE-luciferase, luminescence, 24 h, GLP-1R form is constitutively active; activity change, negative = inhibition: at 38.3 µM (top of the series) unless noted.
UniProt P43220, sequence (P43220 whole entry, looked up): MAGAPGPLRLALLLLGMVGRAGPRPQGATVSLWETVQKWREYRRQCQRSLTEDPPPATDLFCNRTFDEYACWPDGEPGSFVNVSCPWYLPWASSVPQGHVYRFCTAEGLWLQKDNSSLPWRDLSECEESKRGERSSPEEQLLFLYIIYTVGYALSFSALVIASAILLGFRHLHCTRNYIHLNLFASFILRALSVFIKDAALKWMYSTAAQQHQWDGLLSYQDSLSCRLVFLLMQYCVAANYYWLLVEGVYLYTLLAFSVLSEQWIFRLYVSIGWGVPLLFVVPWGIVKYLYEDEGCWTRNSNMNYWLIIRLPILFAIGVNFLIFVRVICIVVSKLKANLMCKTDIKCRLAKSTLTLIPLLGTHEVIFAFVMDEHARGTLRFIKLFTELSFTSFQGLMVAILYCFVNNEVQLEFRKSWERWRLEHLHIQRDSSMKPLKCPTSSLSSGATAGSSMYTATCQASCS
Procedure, shortened: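 Seeding at 200 cells/uL, 12 h culture, 24 hr compound treatment, then luciferase reagent and a luminescence read; cells are HEK293 stably expressing a constitutively active GLP-1R plus cAMP-responsive luciferase.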
Further: nearly all actives have a fitted effect of over 55% in size.
On the % scale 0 is the no-effect control and ±100 the full control effect; potency means the concentration at half of the fitted maximal effect; tags describe the fitted curve by direction and shape.

Row | Compound | Potency | activity change, negative = inhibition
1 | COc1ccc(NC(=O)CCOc2ccccc2F)cc1S(=O)(=O)N1CCCCC1 | inconclusive [inhibitor, single point] | –
2 | O=C(CCN1C(=O)S/C(=C\c2ccccc2)C1=O)N1CCCCC1 | inconclusive [inhibitor, single point] | –
3 | O=C(CSc1nc2cccnc2n1Cc1ccccc1)NC1CCCCC1 | inconclusive [inhibitor, partial curve, poor fit] | –
4 | CCN(C(=O)CN1C(=O)NC(c2ccccc2)(c2ccc(C)c(C)c2)C1=O)C1CCCCC1 (stereo not drawn) | inconclusive [inhibitor, single point] | –
5 | O=C(NCCCN1CCOCC1)c1ccc2c(c1)N(Cc1cccc(Cl)c1)C(=O)c1ccccc1S2=O (stereo not drawn) | inconclusive [inhibitor, single point] | –
6 | COc1cccc(C(=O)NCC(c2ccco2)N2CCc3ccccc3C2)c1 (stereo not drawn) | inconclusive [inhibitor, single point] | –
7 | CCCCN(C=O)c1c(CC)nc2c(OCc3ccccc3C)cccn12 | inconclusive [inhibitor, single point] | –
8 | Cc1nc2nncn2c(Nc2ccc(F)cc2)c1C | – | inactive: -7.03%
9 | NC(=O)c1ccsc1NC(=O)c1ccc(S(=O)(=O)N2CCCc3ccccc32)cc1 | inconclusive [inhibitor, partial curve, poor fit] | –
10 | CC(C)C(N)c1csc(NC(=O)Nc2cccc(C(F)(F)F)c2)n1 (stereo not drawn) | inconclusive [inhibitor, single point] | –
11 | O=C(N/N=C/c1cccnc1)c1cc(-c2ccc(Cl)cc2)nc2ccccc12 | inconclusive [inhibitor, partial curve] | –
12 | O=c1ncn(-c2ccccc2C(F)(F)F)c2ncccc12 | inconclusive [inhibitor, single point] | –
13 | O=C1c2ccccc2C(=O)C1(c1ccccc1)N1CCN(c2cccc(C(F)(F)F)c2)CC1 | inconclusive [inhibitor, single point] | –
14 | CCC(O)C1CCN(Cc2cn(Cc3ccccc3)nc2-c2cc3ccccc3o2)CC1 (stereo not drawn) | inconclusive [inhibitor, single point] | –
15 | O=C1Nc2ccccc2/C1=C/c1ccnc2ccccc12 | inconclusive [inhibitor, full curve] | –
16 | COc1cc(CN(CC(C)C)S(=O)(=O)c2ccccc2Br)cc(OC)c1 | inconclusive [inhibitor, partial curve, poor fit] | –
17 | CCc1ccc(NC(=O)COc2ccc3c(c2)OCO3)cc1 | inconclusive [inhibitor, partial curve] | –
18 | N#CCc1nc2ccccc2c(=O)[nH]1 | – | inactive: -0.852%
19 | CCOC(=O)/C(=C\c1ccc(OC(F)F)cc1)C1=Nn2c(nnc2-c2ccc(Cl)cc2)SC1 | inconclusive [inhibitor, full curve, poor fit] | –
20 | CC(=O)N1N=C(c2ccc(Br)cc2)OC1(C)CC(=O)Nc1ccccc1 (stereo not drawn) | inconclusive [inhibitor, partial curve, poor fit] | –
21 | Cc1nc(-c2ccc(S(=O)(=O)Nc3ccc(OC(F)(F)F)cc3)cc2)co1 | inconclusive [inhibitor, partial curve, poor fit] | –

Row | Compound | Potency | activity change, negative = inhibition
22 | COc1ccc(-c2oc(NC(=O)CSc3nncn3C)c(C#N)c2-c2ccc(OC)cc2)cc1 | active: 1.58 µM | –
23 | CCOc1ccc(OCc2ccc(C(=O)Nc3ccc(Cl)cn3)o2)cc1 | inconclusive [inhibitor, single point] | –
24 | CCOc1ccc(S(=O)(=O)N2CCCCC2)cc1NC(=O)CN1C(=O)NC(C)(c2ccc(C)cc2)C1=O (stereo not drawn) | inconclusive [inhibitor, partial curve, poor fit] | –
25 | CC1(C(=O)NC2CCCCCC2)CCN1C(=O)C1(c2ccccc2)CC1 (stereo not drawn) | inconclusive [inhibitor, single point] | –
26 | CCN(CC)S(=O)(=O)c1cccc(C(=O)Nc2ccccc2)c1 | inconclusive [inhibitor, full curve, poor fit] | –
27 | O=Cc1cn(-c2ccccc2)nc1-c1ccccc1 | inconclusive [inhibitor, single point] | –
28 | Cn1cccc1/C=C1\SC(=O)N(c2ccc(O)cc2)C1=O | – | inactive: 5.53%
29 | CCOc1ccc(-n2nc3c(=O)[nH]nc(C)c3c2C)cc1 | inconclusive [inhibitor, partial curve, poor fit] | –
30 | Cc1ccccc1-c1nnc(SCC(=O)N2CCCc3ccccc32)o1 | inconclusive [inhibitor, single point] | –
31 | OCCCCNCc1cc(Br)ccc1OCc1ccccc1 | inconclusive [inhibitor, partial curve] | –
32 | Cc1ccccc1C(=O)Oc1ccc2ccc(O)cc2c1 | inconclusive [inhibitor, single point] | –
33 | CN(/N=C/c1cc(Cl)cc(Cl)c1O)c1c(Cl)cccc1[N+](=O)[O-] | active: 8.91 µM | –
34 | Cc1ccc(N(Cc2ccccc2)C(=O)c2cc(S(=O)(=O)N3CCOCC3)ccc2Cl)cc1 | inconclusive [inhibitor, partial curve, poor fit] | –
35 | Cc1ccc(N(C(=O)Cc2cccs2)C(C(=O)NC2CCCCC2)c2ccccn2)cc1C (stereo not drawn) | inconclusive [inhibitor, single point] | –
36 | COc1ccc(NC(=O)C2CCCN2C(=O)NCc2ccccc2)cc1 (stereo not drawn) | inconclusive [inhibitor, single point] | –
37 | Fc1ccccc1NC(=S)NCc1ccc(Cl)cc1 | inconclusive [inhibitor, single point] | –
38 | CCCS(=O)(=O)N1CCCC(C(=O)NCCCN2CCN(c3cccc(Cl)c3)CC2)C1 (stereo not drawn) | inconclusive [inhibitor, partial curve, poor fit] | –
39 | COc1ccc(N2CCN(CCCNC(=O)CCC(=O)N3CCOc4ccc(Cl)cc43)CC2)cc1 | inconclusive [inhibitor, single point] | –
40 | C=CCN(c1ccccc1)S(=O)(=O)c1cccc(C(=O)N2CC(C)CC(C)C2)c1 (stereo not drawn) | inconclusive [inhibitor, single point] | –
41 | Cc1cccc(OCc2nnc(SC(C)C(=O)O)n2Cc2ccccc2)c1 (stereo not drawn) | – | inactive: -6.51%
42 | COC(=O)c1cc2ccccc2c(-c2c(OC)c(C(=O)OC)cc3ccccc23)c1OC | inconclusive [inhibitor, partial curve, poor fit] | –

Row | Compound | Potency | activity change, negative = inhibition
43 | CCN(CC(=O)Nc1c(C(=O)OC)[nH]c2ccccc12)c1ccc2c(c1)OCO2 | inconclusive [inhibitor, single point] | –
44 | CCOC(=O)C1=C(C)NC(=O)NC1c1ccc(NC(C)=O)cc1 (stereo not drawn) | inconclusive [inhibitor, partial curve, poor fit] | –
45 | O=C(Nc1ccc2ccccc2c1)c1ccccc1Cl | inconclusive [inhibitor, single point] | –
46 | Cc1cccc(Cn2c(NCCO)nc3c2c(=O)n(C)c(=O)n3C)c1 | – | inactive: -3.43%
47 | Cc1ccc(/C=N/NC(=O)Cc2c[nH]c3ccccc23)c(C)c1 | inconclusive [inhibitor, partial curve, poor fit] | –
48 | CCN(CC)C(=O)CSc1nc(N)c(C#N)c(-c2cccs2)c1C#N | – | inactive: 0%
49 | CCCCC1Cc2[nH]c(=S)[nH]c(=O)c2C(c2ccc(Cl)cc2)O1 (stereo not drawn) | – | inactive: 5.78%
50 | COc1ccc(NCc2cc3cc4c(cc3n(CC(=O)Nc3ccccc3)c2=O)OCO4)cc1 | – | inactive: -1.85%
51 | Cc1ccc(NC(=O)Cn2nnc(C(=O)NCCc3ccccc3)c2N)c(C)c1 | – | inactive: -4.78%
52 | CCOC(=O)Cc1ccc(NC(=O)N(C(C)C)C2CCN(C(C)=O)CC2)cc1 | inconclusive [inhibitor, single point] | –
53 | Cc1cc(C)cc(N=C(NO)c2cccc([N+](=O)[O-])c2)c1 | inconclusive [inhibitor, single point] | –
54 | O=C(CSC(=S)N1CCCC1)c1ccccc1 | inconclusive [inhibitor, partial curve, poor fit] | –
55 | COc1ccc(NC(=O)C(C)N2c3cccc4cccc(c34)S2(=O)=O)cc1 (stereo not drawn) | inconclusive [inhibitor, single point] | –
56 | COc1ccc(NC(=O)CSc2nc(-c3ccc(OC)c(OC)c3)[nH]c2-c2ccc(C)cc2)cc1 | inconclusive [inhibitor, single point] | –
57 | Cc1c(C(=O)Nc2nc3ccccc3[nH]2)oc2c(Cl)cccc12 | inconclusive [inhibitor, single point] | –
58 | O=C(NC(=S)Nc1cccc(Cl)c1N1CCCCC1)c1cccs1 | inconclusive [inhibitor, full curve, poor fit] | –
59 | Cc1cc(NC(=O)CSc2nc(-c3cccs3)nc3ccccc23)no1 | inconclusive [inhibitor, full curve, poor fit] | –
60 | Cc1ccc(CC(=O)NC(C)CCc2ccccc2)cc1 (stereo not drawn) | inconclusive [inhibitor, single point] | –
61 | COc1ccc(CN2CCN(C(=O)c3ccc(S(=O)(=O)N4CCCCCC4)cc3)CC2)cc1 | inconclusive [inhibitor, single point] | –
62 | COc1ccc(C2CC(c3ccccc3)=NN2C(=O)COC(=O)c2cnc(Cl)c(Cl)c2)cc1 (stereo not drawn) | – | inactive: 28.3%
63 | O=C(CSc1cccc(C(F)(F)F)c1)N1CCN(S(=O)(=O)c2ccccc2)CC1 | inconclusive [inhibitor, single point] | –
